Experimental data taken from PMC4336329 (PLoS ONE, 2015).
The whole screen tested about 310,000 compounds, of which about 2,200 (0.71%) showed an effect of 50% or more. Effects have a minus sign here. The list shows a part of the results.

target: human ether-à-go-go-related gene (hERG) potassium channel (human, UniProt Q12809); test: primary screen, population patch clamp on CHO cells stably expressing hERG
Sequence (Q12809 whole entry, looked up): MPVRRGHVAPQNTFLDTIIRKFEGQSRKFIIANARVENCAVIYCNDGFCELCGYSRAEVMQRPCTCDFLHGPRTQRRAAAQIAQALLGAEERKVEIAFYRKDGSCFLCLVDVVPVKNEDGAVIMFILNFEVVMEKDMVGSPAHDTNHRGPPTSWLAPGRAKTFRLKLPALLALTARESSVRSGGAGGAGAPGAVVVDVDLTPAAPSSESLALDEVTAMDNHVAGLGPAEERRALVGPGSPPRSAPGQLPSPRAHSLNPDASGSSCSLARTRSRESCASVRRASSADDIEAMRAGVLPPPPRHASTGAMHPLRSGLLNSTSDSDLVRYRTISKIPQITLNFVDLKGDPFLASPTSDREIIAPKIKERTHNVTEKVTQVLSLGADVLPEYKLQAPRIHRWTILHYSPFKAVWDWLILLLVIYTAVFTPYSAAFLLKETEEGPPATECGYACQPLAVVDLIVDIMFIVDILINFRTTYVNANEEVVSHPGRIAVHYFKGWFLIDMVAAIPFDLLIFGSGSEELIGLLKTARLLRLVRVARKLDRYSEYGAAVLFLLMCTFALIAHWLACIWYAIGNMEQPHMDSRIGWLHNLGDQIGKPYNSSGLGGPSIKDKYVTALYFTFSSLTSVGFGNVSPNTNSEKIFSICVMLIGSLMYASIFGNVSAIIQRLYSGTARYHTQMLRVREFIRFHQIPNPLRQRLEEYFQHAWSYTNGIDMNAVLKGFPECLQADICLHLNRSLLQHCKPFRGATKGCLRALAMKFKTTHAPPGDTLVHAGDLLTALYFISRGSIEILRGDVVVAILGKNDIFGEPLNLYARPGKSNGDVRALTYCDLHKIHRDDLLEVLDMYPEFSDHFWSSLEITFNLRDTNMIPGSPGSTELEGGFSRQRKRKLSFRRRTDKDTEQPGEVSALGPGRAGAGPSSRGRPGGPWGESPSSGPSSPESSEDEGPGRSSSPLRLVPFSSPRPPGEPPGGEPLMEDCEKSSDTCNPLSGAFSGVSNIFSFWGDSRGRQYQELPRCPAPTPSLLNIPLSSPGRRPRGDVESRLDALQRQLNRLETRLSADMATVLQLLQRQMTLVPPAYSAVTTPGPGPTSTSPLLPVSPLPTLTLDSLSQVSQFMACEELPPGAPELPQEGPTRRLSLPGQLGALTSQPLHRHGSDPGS

SMILES | hERG current change (%, negative = inhibition) at 1uM [%]
NC(N)=NS(=O)(=O)c1ccc(NC(=S)NC(=O)/C=C/c2cccs2)cc1 | 6.62
CCOC(=O)c1cnn(-c2nc(CC)nc3sc4c(c23)CCC4)c1N | 1.45
Cc1cc2ccccn2c1C(C[N+](=O)[O-])c1ccc(N(C)C)cc1 (stereo not drawn) | 2.6
NC(=O)NC(=O)COC(=O)[C@H](Cc1ccccc1)NC(=O)c1cccs1 | -1.29
COc1ccc(C(=O)C2CCCN(C3CSCCSC3)C2)c(C)c1 (stereo not drawn) | -11.2
CC(=O)Nc1ccc(NC(=O)CCCCCN2C(=O)c3ccccc3C2=O)cc1 | 3.78
S=C1NC2(CCCCC2)NN1c1ccccc1 | 10.7
O=C(CSc1ncccn1)N/N=C/c1cccs1 | 8.74
COC(=O)c1[nH]c(C)c(/C(O)=C2\C(=O)C(=O)N(CCN(C)C)C2c2cccc(OC)c2OC)c1C (stereo not drawn) | 5.05
COc1cc(Cc2[nH+]ccc3cc(OC)c(OC)cc23)c(S(=O)(=O)[O-])cc1OC | 11.6
CCOC(=O)C1CCCN(C(=O)c2ccc(CS(=O)(=O)c3ccc(Br)cc3)o2)C1 (stereo not drawn) | -12.8
COc1ccccc1N1CCN(C(=O)c2cc3cc(Cl)ccc3[nH]2)CC1 | 7.13
CC1(C)C(=O)OC(c2c3ccccc3cc3ccccc23)C(C)(C)C1=O (stereo not drawn) | 0.485
CN1CCN(CCCNC(=O)c2ccc(CS(=O)(=O)c3ccc(Br)cc3)o2)CC1 | 2.98
CN(C)N1C(N)=C(C#N)C(c2cccnc2)C2=C1CCCC2=O (stereo not drawn) | 7.23
CC(Oc1cccc(Br)c1)C(=O)N1CCCN(C)CC1 (stereo not drawn) | 5.81
COc1ccc(S(=O)(=O)N2CCCOC2CNC(=O)C(=O)NCc2ccccc2F)cc1C (stereo not drawn) | 16
COc1ccc(COC[C@H](C)[C@H](O)[C@@H](C)[C@H]2OC(=O)[C@@H]2C)cc1 | 17.6
CCN(CC)CCN(CC(=O)N(C1CCCCC1)C1CCCCC1)C(=O)c1cccnc1.Cl.O | -24.7
O=C(NC1CCN(C(=O)Nc2cccc(F)c2)CC1)c1ccco1 | 6.49
Cc1nc2sc(C)c(C)c2c(=O)[nH]1 | 8.79
CC(C)(C)c1ccc(CN(Cc2ccco2)Cc2nnnn2C2CCCC2)cc1 | 13.8
COc1ccc(NC(=O)/C=C/c2cccc(Br)c2)cn1 | 5.56

SMILES | hERG current change (%, negative = inhibition) at 1uM [%]
CCC(=O)Nc1ccc(N2CCCCC2)cc1 | 15.3
COC(=O)COc1c(/C=C\c2nc(O)c([N+](=O)[O-])c(=O)[nH]2)cccc1OC | 10.4
COc1nccnc1NS(=O)(=O)c1ccc(NCc2cc(Br)ccc2O)cc1 | 6.54
O=C(CSc1ccccc1)NNC(=O)c1ccccc1O | 18.6
Nc1cccc(/C=C/C(=O)O)c1 | 14.2
CCN(CC(=O)NC1CCS(=O)(=O)C1)S(=O)(=O)c1ccc(F)cc1 (stereo not drawn) | 19.3
O=C(CCn1c(=S)[nH]c2ccccc2c1=O)NCCc1ccc(Cl)cc1 | 4.31
O=C(Nc1ccc([N+](=O)[O-])cc1)Nc1ccc(N2CCOCC2)c2nonc12 | 6.63
O=C(Nc1ccc(F)cc1F)c1cc2ccccc2oc1=O | 5.3
Cc1cc[n+](CC(=O)N2CCCc3ccccc32)cc1.[Cl-] | 22.2
COc1ccc(/C=C/C(=O)N(CC(C)C)CC(C)C)cc1Br | 0.531
N#C/C(C(=O)N1CCCCC1)=C1/N=C(NC(=O)c2ccc(F)cc2)c2ccccc21 | 16.7
CCN(CC)S(=O)(=O)c1cccc(NC(=O)C2CC(=O)N(c3ccc4c(c3)OCCO4)C2)c1 (stereo not drawn) | 1.35
CN1CCN(C(=O)/C(=C/c2ccccc2)c2ccccc2)CC1 | -33.2
O=C(CNC(=O)c1ccc(Br)o1)NCc1ccccc1 | 11.1
CCOC(=O)c1ccc(NC(=O)CSc2nnc(COc3ccccc3)n2C)cc1 | 1.7
COc1ccccc1N(CC(=O)NCCSCc1ccco1)S(=O)(=O)c1ccccc1 | 7.33
CCCCCC(O)c1cccc(OCc2ccc3ccccc3n2)c1 (stereo not drawn) | 12.6
COc1ccc(CC(=O)N2N=C(c3ccncc3)CC2(O)C(F)(F)F)cc1 (stereo not drawn) | 11.7
NC(=O)c1ccc(SCC(=O)OCC(=O)NC2CCCCCCC2)c([N+](=O)[O-])c1 | 9.16
FC(F)(F)c1cnc(NNC(=S)Nc2ccccc2Cl)c(Cl)c1 | 10.6
Cc1c(Cl)cccc1NC(=O)CC1NCCNC1=O (stereo not drawn) | 8.91
Cc1cccc(NC(=O)C2COc3ccccc3O2)c1 (stereo not drawn) | 12.4

SMILES | hERG current change (%, negative = inhibition) at 1uM [%]
Cc1nc2ccccn2c1/C(O)=C1\C(=O)C(=O)N(CCN2CCOCC2)C1c1cccnc1 (stereo not drawn) | 19.9
COc1ccc(C2=CC(=O)CC(C)(C)C2)cc1 | 9.03
COc1ccccc1CNC(=O)C1CC(=O)N(C2CCCC2)C1 (stereo not drawn) | 6.53
CN1CCN(C(=S)c2ccc(N(C)C)cc2)CC1 | 13.1
O=C(N1CCN(c2ccccn2)CC1)C(Cl)(Cl)Cl | -1.54
C=CCNC(=O)Cn1nnc(-c2ccc(-c3ccc(OC)cc3)cc2)n1 | 15
O=C(COC(=O)c1ccccc1NC(=O)c1ccco1)NC1CCS(=O)(=O)C1 (stereo not drawn) | 6.5
Cc1ccc(/C=N/NC(=O)CNC(=O)COc2ccc(Cl)cc2)o1 | 9.17
O=C(NCCc1ccccc1)C1CCCN(C(=O)NC2CCCCC2)C1 (stereo not drawn) | 2.4
Cc1nc(-c2ccccn2)nc(N2CCOCC2)c1Cl | 12.1
CC1CC(C)CN(S(=O)(=O)c2ccc3c(c2)CC(C)N3C(=O)C2CCC2)C1 (stereo not drawn) | 8.32
COc1ccc(-c2nn(-c3ccccc3)cc2C(=O)N(C)CC(=O)Nc2cccc(F)c2)cc1 | 8.34
O=S(=O)(Nc1ccccc1N1CCOCC1)c1ccc(Cl)cc1 | 2.29
COC(=O)c1cc(N2C(=O)C3C4C=CC(CC4)C3C2=O)ccc1Cl (stereo not drawn) | 11.6
COCc1cc(C)n(CC(=O)Nc2cc(C)cc(C)c2)c(=O)c1C#N | 2.72
CCN(CC(=O)NC)S(=O)(=O)c1ccc(C)cc1 | 13.8
C=CCn1c(Cc2cccs2)nnc1SCC(=O)Nc1cc(OC)cc(OC)c1 | 3.92
Cc1ccccc1-n1nnnc1SCCCC(=O)c1ccc(F)cc1 | -0.258
c1n[nH]c(SCCCCSc2ncn[nH]2)n1 | 10.9
CCn1cc(/C=N/O)c(C)n1 | 14
C=CCn1c(COc2ccc3c(c2)CCCC3)nnc1SCC(=O)Nc1cccc(SC)c1 | 11.6
CC(C)Cc1ccc(C(C)C(=O)Nc2ccc(O)cc2)cc1 (stereo not drawn) | 8.53
C=CCN1C(=O)CSc2ccc(C(=O)NCc3cccs3)cc21 | 5.21

SMILES | hERG current change (%, negative = inhibition) at 1uM [%]
CCC(=NCCC(c1ccccc1)c1ccccc1)c1c(O)n(C)c(=O)n(C)c1=O | 2.97
CCOC(=O)N1CCN(C(=O)c2ccc3c(=O)n(-c4ccc(OC)cc4)c(=S)[nH]c3c2)CC1 | 16.5
O=C(c1cnn(-c2ccccc2)c1)c1cc(F)ccc1O | 14.5
Cc1ccc(OCCCC(=O)ON=C(N)c2ccccc2C)cc1 | 8.65
O=C(CCCn1c(=O)oc2ccccc21)N1CCN(c2ccc(F)cc2)CC1 | -35.4
CC1CCCC(NC(=O)COC(=O)/C=C/c2ccco2)C1C (stereo not drawn) | 16.1
CCOC(=O)N1CCC(NC(=O)c2cc(C(=O)Nc3cccc(C(F)(F)F)c3)ccc2CO)CC1 | 2.07
O=C(COc1ccc(Cl)cc1)NCC(=O)N/N=C/c1cccs1 | 3.82
COc1cccc(C(=O)O/N=C(\N)c2ccccn2)c1OC | 16.8
COc1ccc(C(=O)Nc2cc(C(F)(F)F)ccc2-n2cncn2)cc1 | 10.2
NC(=O)c1nnn(-c2ccc([N+](=O)[O-])cc2)c1-c1ccccc1 | -1.34
Cc1ccc(-n2c(C)cc3c2CCCC3=O)cc1 | 4.8
Oc1ccccc1CNn1cnnc1 | 14.3
Cc1cccc(-c2nc(NCCCN3CCOCC3)c3ccccc3n2)c1 | -6.19
COCCCN1C(=O)C(=O)/C(=C(/O)c2ccc(S(=O)(=O)N3CCCCC3)cc2)C1c1ccc(OC)cc1 (stereo not drawn) | 13.8
COc1cc(/C=N/NC(=O)c2ccc(Cl)cc2)ccc1OCC(=O)N1CC(C)OC(C)C1 (stereo not drawn) | 13.1
CCC(=O)NC(Nc1nc2ccc(C)cc2s1)(C(=O)OC)C(F)(F)F (stereo not drawn) | 10.6
CCCSc1ccccc1C(=O)N1CCN(C(=O)c2ccco2)CC1 | 17
N#CCN1C(=O)C(=O)N(Cc2cccc(Cl)c2)C1=O | 14.6
CN1/C(=C\C=C(/C#N)C(=O)Nc2ccccc2F)C(C)(C)c2ccccc21 | -6.25
Cc1ccc(S(=O)(=O)CCSc2ccc(C(F)(F)F)cn2)cc1 | 5.41
